Results: PubChem BioAssay AID485281 (National Center for Advancing Translational Sciences (NCATS), 2010)
In all, about 350,000 compounds went through this assay and about 260 (0.074%) were called active. This list was built around the results that the source calls inconclusive (neither active nor inactive); the mix of calls is not that of the screen. Calls come from the whole dose curve; as a rule, active = well fitted inhibition curve with a large enough effect; inconclusive = small, poorly fitted or top-dose-only effect; inactive = no such curve, though single readings can be large or run the other way. A potency beside an inconclusive call is a rough fit, not a confirmed value.

target: Ferritin light chain (Equus caballus) (UniProt P02791); assay: qHTS Assay for Identification of Novel General Anesthetics; settings: apoferritin/1-aminoanthracene competitive binding, fluorescence; activity change, negative = displacement: at 77.5 µM (top of the series); note: nearly all actives have a fitted effect of over 20% in size
Outline: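 Concentration-response curves derived by four-parameter Hill fitting of normalized fluorescence, where compounds displaced 1-AMA from 10 uM horse apoferritin following a brief 10 min room-temperature incubation; propofol titration acted as positive control.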
% is set by controls: 0 for no effect and ±100 for the full control effect; potency is the fitted concentration of half-maximal effect; tags give direction and shape of the fitted curve.

UniProt P02791, sequence (P02791 whole entry, looked up): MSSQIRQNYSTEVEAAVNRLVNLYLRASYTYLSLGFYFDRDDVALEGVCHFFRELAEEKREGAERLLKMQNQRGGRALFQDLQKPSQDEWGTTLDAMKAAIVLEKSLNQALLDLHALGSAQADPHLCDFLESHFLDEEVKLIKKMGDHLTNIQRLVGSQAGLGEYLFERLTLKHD

Row | SMILES | Potency | activity change, negative = displacement
1 | CC(=O)c1ccc(NS(=O)(=O)c2ccc(C(C)(C)C)cc2)cc1 | inconclusive: 35.5 µM [inhibitor, single point] | 
2 | Cc1ccc(C(C)NC(=O)c2cc3ccccc3oc2=O)cc1C (stereo not drawn) | inconclusive: 7.94 µM [inhibitor, partial curve] | 
3 | CN(C(=O)c1c[nH]c2ccc(S(=O)(=O)Nc3cccc(C(F)(F)F)c3)cc2c1=O)C1CCCCC1 | inconclusive: 50.1 µM [inhibitor, single point] | 
4 | CC(C)[C@H](NC(=O)[C@H]1N2C(=O)c3ccccc3C2SC1(C)C)C(=O)NCc1ccco1 (stereo partly drawn) | inconclusive: 25.1 µM [inhibitor, partial curve] | 
5 | O=C(Cn1nc(Cc2ccncc2)c2ccccc2c1=O)Nc1cccc(C(F)(F)F)c1 | inconclusive: 35.5 µM [inhibitor, partial curve] | 
6 | CN(C)CCCN(C(=O)c1ccc(C(=O)c2ccccc2)cc1)c1nc2cc3c(cc2s1)OCO3 | inconclusive: 31.6 µM [inhibitor, partial curve] | 
7 | COc1ccc(S(=O)(=O)/N=C2/NC(=O)/C(=C/c3ccco3)S2)cc1 |  | inactive: -18.8%
8 | COc1ccc(CC(=O)OCC(=O)NC(=O)NC2CCCCC2)cc1 | inconclusive: 39.8 µM [inhibitor, single point] | 
9 | O=C(/C=C/c1ccc(Cl)cc1)N(Cc1ccccc1)c1ccccn1 | inconclusive: 28.2 µM [inhibitor, partial curve] | 
10 | CCOc1ccc(NC(=O)Nc2ccc(Cc3ccncc3)cc2)cc1 | inconclusive: 56.2 µM [inhibitor, single point] | 
11 | Cc1nn(-c2ccccc2)c2c1C1(C(=O)Nc3ccccc31)N1C(=N2)Sc2ccccc21 (stereo not drawn) | inconclusive: 50.1 µM [inhibitor, partial curve, poor fit] | 
12 | Cc1ccc(NC(=O)C2CCCN(c3ncnc4onc(C)c34)C2)c(Cl)c1 (stereo not drawn) |  | inactive: -11.3%
13 | Nc1c2c(=O)oc(-c3ccccc3)cc2nn1-c1ccccc1 | inconclusive: 56.2 µM [inhibitor, single point] | 
14 | CSc1ccccc1OCc1cc(C(=O)N2CCCC(C)C2)no1 (stereo not drawn) | inconclusive: 39.8 µM [inhibitor, partial curve] | 
15 | N#CC(c1ccccc1)(c1ncc(C(F)(F)F)cc1Cl)N1CCOCC1 (stereo not drawn) | inconclusive: 22.4 µM [inhibitor, partial curve] | 
16 | CN(CC1CCCCO1)C(=O)c1cc(COc2ccc(F)cc2Cl)on1 (stereo not drawn) | inconclusive: 3.98 µM [inhibitor, partial curve] | 
17 | O=C(/C=C/Nc1cccc(C(F)(F)F)c1)c1ccco1 | inconclusive: 39.8 µM [inhibitor, single point] | 
18 | CCc1ccc(C(=O)CCC2CCCCC2=O)cc1 (stereo not drawn) | inconclusive: 22.4 µM [inhibitor, partial curve] | 
19 | N#CCSc1nnc(Nc2ccccc2)s1 | inconclusive: 31.6 µM [inhibitor, partial curve] | 
20 | O=S1(=O)CCOCCCN1Cc1cccc(F)c1 | inconclusive: 44.7 µM [inhibitor, single point] | 
21 | OC(c1cccc(Cl)c1)c1nccc2ccccc12 (stereo not drawn) | inconclusive: 35.5 µM [inhibitor, partial curve] | 
22 | O=C(O)c1ccccc1C(=O)NNc1ccc(Cl)cc1 | inconclusive: 50.1 µM [inhibitor, single point] | 
23 | COc1cccc(-n2c(SCC(=O)c3ccccc3)nc3c([nH]c4ccccc43)c2=O)c1 | inconclusive: 8.91 µM [inhibitor, partial curve] | 

Row | SMILES | Potency | activity change, negative = displacement
24 | CCCn1c(COc2cccc(C)c2)nc2ccccc21 | inconclusive: 28.2 µM [inhibitor, partial curve] | 
25 | Cc1ccc(C(=O)CCNc2ccc(Br)cc2)o1 |  | inactive: -15.3%
26 | CCN(CC)S(=O)(=O)c1cccc(NC(=O)COC(=O)/C=C/c2cccs2)c1 | inconclusive: 12.6 µM [inhibitor, partial curve] | 
27 | O=C(Cc1cccs1)N/N=C/c1ccccc1 |  | inactive: -6.77%
28 | Cc1ccc(S(=O)(=O)/C(C#N)=C/c2c(N3CC(C)OC(C)C3)nc3c(C)cccn3c2=O)cc1 (stereo not drawn) | inconclusive: 14.1 µM [inhibitor, partial curve] | 
29 | COc1ccc(Cn2c(-c3ccco3)nc3oc4cc(OC)ccc4c(=O)c3c2=O)cc1 | inconclusive: 44.7 µM [inhibitor, partial curve] | 
30 | COc1cccc(CCc2ccccc2OCC[C@@H]2C[C@@H](O)CN2C)c1 |  | inactive: 4.49%
31 | COc1ccc2c(c1)c1c(c(=O)n(-c3ccccc3C)c(=O)n1CC(N)=O)n2C |  | inactive: 320%
32 | CC(C)CCNC(=O)COc1ccc2c(c1)C(=O)CC(C)(C)O2 |  | inactive: 437%
33 | Cc1ccc(S(=O)(=O)NC(CC(=O)n2nc(C)cc2C)c2ccccc2)cc1 (stereo not drawn) | inconclusive: 50.1 µM [inhibitor, single point] | 
34 | CC(C)C(=O)N(c1cc2sc(=O)oc2c2ccccc12)S(=O)(=O)c1cccs1 | inconclusive: 25.1 µM [inhibitor, partial curve] | 
35 | CCc1ccc(-n2c(SCc3nc(-c4cc(OC)ccc4OC)no3)nnc2-c2ccccc2)cc1 |  | inactive: 66.3%
36 | COc1ccc(C2=CC(c3ccccc3Cl)n3nc(-c4ccc(C)cc4)nc3N2)cc1 (stereo not drawn) |  | inactive: 52.4%
37 | OCCN1CCN(CC(O)COc2ccc(C34CC5CC(CC(C5)C3)C4)cc2)CC1 (stereo not drawn) | inconclusive: 11.2 µM [inhibitor, partial curve] | 
38 | Cn1c(=O)n(C)c2cc(NS(=O)(=O)c3ccc(C(C)(C)C)cc3)ccc21 | inconclusive: 31.6 µM [inhibitor, single point] | 
39 | O=c1c2cc(Br)ccc2nc(-c2ccccc2)n1O |  | inactive: -1.42%
40 | COc1ccc(/C=C/C(=O)O)cc1S(=O)(=O)NCc1ccco1 |  | inactive: 0.558%
41 | COc1cccc(C2=Nn3c(nnc3-c3ccccc3OC)SC2)c1 | inconclusive: 25.1 µM [inhibitor, partial curve] | 
42 | COc1cccc(NS(=O)(=O)c2ccc3[nH]c4c(c3c2)CCCCCC4)c1 | inconclusive: 3.55 µM [inhibitor, full curve, poor fit] | 
43 | COc1ccc(C(=O)Nc2cccc(/C(C)=N\NC(=O)c3ccoc3C)c2)cc1OC |  | inactive: -20.3%
44 | CCOC(=O)c1cnc2ccc(OCC)cc2c1NCCN1CCOCC1 | inconclusive: 28.2 µM [inhibitor, single point] | 
45 | Cc1c(CCOC(=O)CC23CC4CC(CC(C4)C2)C3)sc[n+]1CC(=O)c1ccccc1 | inconclusive: 35.5 µM [inhibitor, partial curve] | 
46 | COc1cccc(NC(=O)CN2CCN(c3ccccc3F)CC2)c1 |  | inactive: 4.66%

Row | SMILES | Potency | activity change, negative = displacement
47 | CCn1c(N2CCN(S(=O)(=O)c3ccccc3C(F)(F)F)CC2)nc2ccccc21 |  | inactive: -6.45%
48 | COc1cccc(Nc2nnc(SCC3CCCCO3)s2)c1 (stereo not drawn) | inconclusive: 15.8 µM [inhibitor, partial curve] | 
49 | Cc1cccc(NC(=O)c2cnn(-c3ccccc3)c2C)c1C |  | inactive: -2.69%
50 | COc1cccc(-c2noc(C(C)n3nc(C)c([N+](=O)[O-])c3C)n2)c1 (stereo not drawn) | inconclusive: 28.2 µM [inhibitor, partial curve] | 
51 | CCOc1ccc(CCNC(=O)CSc2nc3ccccc3nc2Cc2ccc(C)cc2)cc1OCC | inconclusive: 50.1 µM [inhibitor, partial curve, poor fit] | 
52 | CCn1c(SCC(=O)Nc2ccc3c(c2)OCCO3)nnc1-c1cccs1 | inconclusive: 31.6 µM [inhibitor, partial curve] | 
53 | N#Cc1c(-c2ccc(Cl)cc2)nc2n(c1=O)CCCS2 |  | inactive: -23.6%
54 | COc1ccccc1OC(=O)CN1C(=O)c2ccccc2C1=O | inconclusive: 50.1 µM [inhibitor, partial curve] | 
55 | O/N=C\c1ccccc1Oc1ccc(F)cc1 | inconclusive: 50.1 µM [inhibitor, single point] | 
56 | COc1ccc(Cl)cc1NC(=O)N1CCC(C)CC1 | inconclusive: 28.2 µM [inhibitor, partial curve] | 
57 | CCOCCc1nn2c(=O)cc(COC(=O)COc3ccc(C)c(C)c3)nc2s1 | inconclusive: 31.6 µM [inhibitor, single point] | 
58 | Cc1ccc(C(=O)N/C(=C/c2ccco2)C(=O)Nc2cccc(C)c2)cc1 | inconclusive: 31.6 µM [inhibitor, partial curve] | 
59 | CCNC(=S)N(CCc1cccc(C)c1)Cc1cc2cc(OC)c(OC)cc2[nH]c1=O |  | inactive: 7.2%
60 | Cn1ccnc1SCC(=O)N1CCc2ccccc21 | inconclusive: 35.5 µM [inhibitor, partial curve] | 
61 | O=C(c1ccc2c(c1)OCCCO2)c1cccs1 | inconclusive: 28.2 µM [inhibitor, partial curve] | 
62 | CC(C)c1ccc(NC(=O)CSc2ncnc3c2sc2ccccc23)cc1 | inconclusive: 6.31 µM [inhibitor, single point] | 
63 | O=C(O)CSCC(=O)Nc1ccc(C2CCCCC2)cc1 | inconclusive: 15.8 µM [inhibitor, partial curve] | 
64 | CCOc1ccc(CCNC(=O)c2cc3cc4cc(OC)ccc4nc3s2)cc1OCC | inconclusive: 2.51 µM [inhibitor, partial curve] | 
65 | COc1ccc(-c2noc(N3CCN(c4ccc(Cl)cc4)CC3)n2)cc1OC |  | inactive: 1.55%
66 | COc1cccc(NC(=O)CCSc2nc(-c3ccco3)cc(C(F)(F)F)n2)c1 | inconclusive: 7.08 µM [inhibitor, full curve] | 
67 | O=C(NC1CCN(Cc2ccccc2)CC1)c1cccc(Br)c1 |  | inactive: -8.52%
68 | COc1ccc(C2CC(=O)N3CN(c4ccc(C)c(Cl)c4)CSC3=C2C#N)cc1OC (stereo not drawn) | inconclusive: 39.8 µM [inhibitor, single point] | 
